Test results as given in the supplement of paper PMC10986608.
Values joined by “and” are separate entries in the source; they are usually repeats but may differ in a detail not shown here. Equal entries are not always repeated. This is one part of the list. Most values come without repeats; read them as rough.

tested on: Candida albicans DPL-15; experiment: growth (OD600) after compound treatment (apparently relative to screen median) (relative growth (fraction; screen median 1.02)); DPL-15 is a caspofungin-resistant clinical isolate; higher = more fungal growth (less antifungal activity); settings: 25 µM; RPMI 1640; 48 h; 30 °C

Row | SMILES | growth
1 | CCN(CC)CCCNC1=NC(c2ccc(Cl)cc2)C(C(=O)OC)=C(C)N1C (centres undefined) | 1.16
2 | COC(=O)C/C=C/[C@H](C)[C@@H](NC(=O)[C@H](CCC(=O)OC)NC(=O)OC(C)(C)C)c1cccnc1 | 1.09
3 | COc1ccc(N2C(=O)c3nn(C)c(CC(C)C)c3C2c2ccc(F)cc2)cc1 (centres undefined) | 0.958
4 | COc1cc(N2C(=O)c3[nH]nc(CC(C)C)c3C2c2ccccc2Br)cc(OC)c1OC (centres undefined) | 1
5 | CO[C@@H]1[C@H](O)CC[C@]2(O)CN(c3c(C)noc3C)[C@@H](CC=C(C)C)[C@](C)(O)[C@@H]12 | 1.03
6 | COC(=O)[C@@H]1[C@@H](C)N(Cc2ccccc2)C(=O)N[C@H]1c1ccccc1 | 0.991
7 | COc1ccc(N2C(=O)c3[nH]nc(CC(C)C)c3C2c2ccccc2Br)cc1 (centres undefined) | 1.02
8 | COc1cc(OC)c2c(=O)c3c(C[C@@H]4[C@H](c5cc(OC)c(O)c6oc7cc(OC)cc(OC)c7c(=O)c56)C=C(C)CC4(C)C)cc(OC)c(O)c3oc2c1 | 0.846
9 | COc1ccc(N2C(=O)c3[nH]nc(CC(C)C)c3C2c2ccc(F)cc2)cc1F (centres undefined) | 0.884
10 | COC(=O)c1[nH]c2ccc(OC)cc2c1[C@]12CCN(C(=O)C3CC3)[C@H]1Nc1ccccc12 | 0.844
11 | COc1cccc(C#Cc2ccc3c(=O)c(Cc4cccnc4)coc3c2)c1 | 1.37
12 | COC(=O)[C@H]1[C@@H](O)[C@@]2(O)c3c(F)cccc3N(C)[C@@]2(c2ccc(OC)cc2)[C@@H]1c1ccccc1 | 0.984
13 | CC(=O)O[C@@H]1C=C[C@@H](C#Cc2ccc(C(C)(C)C)cc2)O[C@@H]1COC(=O)NCc1ccccc1 | 1.08
14 | COC(=O)c1nnc(C(=O)N(C)CC#Cc2ccccc2Cl)c2c3ccccc3n(S(=O)(=O)c3ccc(C)cc3)c12 | 1.08
15 | COC(=O)C1=C(C(=O)OC)[C@@H]2N(Cc3ccccc3)c3ccccc3[C@@]23C[C@@H](C(=O)OC)N(S(=O)(=O)c2ccc([N+](=O)[O-])cc2)C3=N1 | 0.933
16 | COC(=O)c1c(-c2ccccc2Cl)c2c(c3c4ccccc4n(S(=O)(=O)c4ccc(C)cc4)c13)C(=O)N(C)C2 | 1.09
17 | Cc1nn(-c2ccc(C(C)(C)C)cc2)c2c1C(c1ccc3c(c1)OCO3)NC2=O (centres undefined) | 1.05
18 | COC(=O)C1=C(C)N(C)C(NCC2CCCCC2)=NC1c1ccc(Cl)cc1 (centres undefined) | 0.801
19 | Cc1nn(C)cc1Nc1cc(O)cc(O)c1C(=O)N1CCC(F)(F)C1 | 1.1
20 | COC(=O)c1[nH]c2ccc(OC)cc2c1[C@]12CCN(C(=O)c3ccccc3)[C@H]1Nc1ccccc12 | 0.955
21 | Cc1c(O)ccc(C=O)c1C | 0.961
22 | CCO[C@@H]1CCN(C(=O)c2c(O)cc(O)cc2Nc2ccnn2C)C1 | 1.1
23 | Cc1nnc(N2CCC(C(=O)Nc3cccc(F)c3)CC2)c2nn(-c3ccccc3)c(C)c12 | 1.45
24 | COc1ccc([C@@]23Oc4cc(OC)cc(OC)c4[C@]2(O)[C@H](O)[C@H](C(=O)c2cc4ccccc4o2)[C@H]3c2ccccc2)cc1 | 0.759
25 | Cc1ccc(-c2cc(N)n(C)n2)cc1 | 1.02

Row | SMILES | growth
26 | COC(=O)C1=C(C)N(C)C(NCc2cc(OC)c(OC)c(OC)c2)=NC1c1ccccc1C(F)(F)F (centres undefined) | 1.02
27 | Cc1cccc(-c2cc(N)n(C)n2)c1 | 1.06
28 | COC(=O)C1=C(C)N(Cc2ccc(Br)cc2)C(=S)NC1c1ccccc1 (centres undefined) | 0.936
29 | C=CCN1C(=O)C2=C(C(C(C)C)=NCC(C)(C)N2)C1c1ccc(Br)cc1 (centres undefined) | 1.11
30 | O=S(=O)(Nc1nc2ccccc2s1)N1CCOCC1 | 1.28
31 | C=Cc1cc(O[Si](C)(C)C(C)(C)C)ccc1[C@@H]1CCC2(OCCO2)[C@@]1(O)CC(=C)C | 0.86
32 | CC(C)c1ccc(Cn2nccc2Nc2cc(O)cc(O)c2C(=O)N2Cc3cccnc3C2)cc1 | 1.07
33 | COC(=O)C1=C(C)N(Cc2ccc(F)cc2)C(=S)NC1c1ccccc1Br (centres undefined) | 1.19
34 | CCCCCOS(=O)(=O)N[C@H](C)c1ccccc1 | 1.1
35 | CC(C)Cc1c2c(nn1-c1ccccc1)C(=O)NC2c1ccc(F)cc1 (centres undefined) | 0.931
36 | CC(C)=CCc1cc(OCC(N)=O)cc2oc3cccc(O)c3c(=O)c12 | 1.21
37 | CN1CCN=C(c2ccccc2)C2=C1C(=O)N(Cc1ccccc1)C2c1ccccc1 (centres undefined) | 1.05
38 | COC(=O)c1cc2c(c3c4cc(C)ccc4n(S(=O)(=O)c4ccc(OC)cc4)c13)C(=O)N(Cc1ccc(N(C)C)cc1)C2 | 1.06
39 | Nc1c(-c2ccc(F)cc2)cnc2c(-c3ccc(F)nc3)cnn12 | 1.39
40 | CCN1C(=O)N(S(=O)(=O)c2ccc(C)cc2)[C@@H]2C[C@H](C(=O)N3CCCC3)[C@H](C)[C@H](c3ccccc3)C[C@@H]21 | 1.01
41 | C=CCN1C(=O)C2=C(C(CC(C)C)=NCCN2)C1c1ccc(C)cc1 (centres undefined) | 0.977
42 | CCc1ccccc1-n1nc(CC(C)C)c2c1C(=O)NC2c1ccc2c(c1)OCO2 (centres undefined) | 1.12
43 | COC(=O)C1=C(C)[C@]2(C)C[C@@H]3[C@@]4(C)CC[C@H](O)C(C)(C)[C@@H]4CC[C@@]3(C)OC2=C(C)C1=O | 1.04
44 | COc1ccc(N2C(=O)C3=C(C(CC(C)C)=NCC(C)(C)N3)C2c2ccc3c(c2)OCO3)cc1 (centres undefined) | 1.03
45 | CC[C@@H](O)COc1cc2c(cc1C1(c3cc4c(cc3OC[C@H](O)CC)OCO4)C(=O)Nc3ccc(C)cc31)OCO2 | 0.982
46 | O=C(O)[C@H]1[C@H](C(=O)O)[C@@H](c2ccccc2)[C@@H]1c1ccccc1 | 1.4
47 | O=C1C(Nc2ccccc2)=CC(c2ccc3c(c2)OCO3)N1c1ccc(F)cc1 (centres undefined) | 1.01
48 | CC1=NCC(C)(C)NC2=C1C(c1ccc(F)cc1)NC2=O (centres undefined) | 0.95
49 | C=CCN1C(=O)C2=C(C(C(C)C)=NCCN2C)C1c1ccc(F)cc1 (centres undefined) | 1.06
50 | Cc1nn(C)c(C)c1Nc1cc(O)cc(O)c1C(=O)N1CC[C@H](F)C1 | 1.08

Row | SMILES | growth
51 | COC(=O)CCCCCN(C(=O)OC(C)(C)C)S(=O)(=O)NC(C)(C)C | 1.12
52 | CC(C)Cc1n[nH]c2c1C(c1cccc(C(F)(F)F)c1)N(c1ccc3c(c1)OCO3)C2=O (centres undefined) | 0.88
53 | O=C1CCCC(C(C(=O)OCc2ccccc2)C(=O)OCc2ccccc2)C1 (centres undefined) | 0.936 and 0.945
54 | COC(=O)Cc1nnn2c1[C@H](C)[C@H](c1cccc(OC)c1OC)OCC2 | 1.05
55 | CC1=NCCNC2=C1C(c1ccccc1)N(c1ccccc1)C2=O (centres undefined) | 0.912
56 | C#CCC(C)(C)CNC(=O)CC1(CNC(=O)c2cccc(CS(=O)(=O)c3ccc(C)cc3)c2)CCCCC1 | 1.08
57 | CCCCCOS(=O)(=O)Nc1ccc(C#N)cc1 | 1.03
58 | CO[C@@H]1[C@H](O)CC[C@]2(O)CN([C@@H](C)c3ccccc3)[C@](C)([C@H](O)CC=C(C)C)[C@@H]12 | 1.12
59 | CC(=O)C1=C(C)N(Cc2ccc(F)cc2)C(=S)NC1c1cccc(F)c1 (centres undefined) | 0.945
60 | COc1ccc(C[C@@H](CO)[C@@H](CO)Cc2ccc(OC)cc2)cc1 | 1.2
61 | COc1cccc2c(=O)c3cccc(C(=O)NC(C)(C)C)c3[nH]c12 | 1.09
62 | C=CCN1C(=O)C2=C(C(c3ccccc3)=NCCN2)C1c1ccc(F)cc1 (centres undefined) | 1.02
63 | COc1ccc(N2C(=O)C3=C(C(C(C)C)=NCCN3C)C2c2ccc3c(c2)OCO3)cc1 (centres undefined) | 1.06
64 | COC(=O)c1ccc(CN2C(=O)[C@@]3(CC(C)=C[C@@H](COc4ccccc4)O3)c3ccccc32)cc1 | 1.08
65 | CCC[C@@H](O)COc1cc2c(cc1C1(c3cc4c(cc3OC[C@H](O)CCC)OCO4)C(=O)Nc3c(F)cccc31)OCO2 | 1.1
66 | O=C(NO)[C@H](Cc1ccccc1)n1nnc(-c2ccccc2)c1C#CC1CC1 | 0.641
67 | CO[C@@]12O[C@]1([C@]13O[C@@]1(OC)C(=O)c1ccccc1C3=O)C(=O)c1ccccc1C2=O | 1.14
68 | O=[N+]([O-])c1ccc(CCN2Cc3ccccc3C2)cc1 | 0.959
69 | COc1ccc([C@@]23Oc4cc(OC)cc(OC)c4[C@]2(O)c2nc(-c4ccc(C)cc4)[nH]c(=O)c2[C@H]3c2ccccc2)cc1 | 1.05
70 | COC(=O)C/C=C/[C@@H](C)[C@H](NC(=O)[C@H](CC(C)C)NC(=O)OC(C)(C)C)c1ccccc1 | 1.04
71 | CCO[C@H]1CCN(C(=O)c2c(O)cc(O)cc2Nc2cc(C)nn2C)C1 | 0.974
72 | COc1ccc([C@]23Oc4cc(OC)cc(OC)c4[C@](O)(C2O)[C@H](c2c(F)c(F)c(F)c(F)c2F)[C@H]3c2ccccc2)cc1 (some centres undefined) | 0.856
73 | COc1cc(CC=C(C)C)c2c(=O)c3cccc(C)c3oc2c1O | 1.04
74 | C[C@@H]1CC[C@H]2C(=O)N(Cc3cccc([N+](=O)[O-])c3)C[C@H](O)CN2[C@H]1c1ccc(Br)cc1 | 0.864
